Reference: the supplement of paper PMC8728848
The other results are listed elsewhere or left out.

Key:
Assay in all cases: glycan array binding signal (z-score within array); higher = stronger binding
Details in all cases: glycan notation: IUPAC condensed, linker removed
Neu5Ac(a2-6)Gal(b1-4)Glc = molecular target: Neu5Ac(a2-6)Gal(b1-4)Glc
Procedure, shortened: (§1)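 Glycan array data were curated from 3228 arrays in the Consortium for Functional Glycomics database and kept only where the protein sequence was available. Glycan names were converted to IUPAC-condensed notation, and columns mapping to the same glycan were averaged. The binding signal is a within-array Z-score, averaged across arrays of the same protein sequence at different concentrations or buffers and across linkers. Negative Z-scores can be read as non-binding.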

[1] = molecular target: Neu5Ac(a2-6)Gal(b1-4)GlcNAc
Procedure, shortened: as §1

[2] = molecular target: Neu5Ac(a2-6)Gal(b1-4)GlcNAc(b1-2)Man(a1-3)Man(b1-4)GlcNAc(b1-4)GlcNAc
Procedure, shortened: as §1

[3] = molecular target: Neu5Ac(a2-6)Gal(b1-4)GlcNAc(b1-2)Man(a1-3)[Gal(b1-4)GlcNAc(b1-2)Man(a1-6)]Man(b1-4)GlcNAc(b1-4)GlcNAc
Procedure, shortened: as §1

[4] = molecular target: Neu5Ac(a2-6)Gal(b1-4)GlcNAc(b1-2)Man(a1-3)[GlcNAc(b1-2)Man(a1-6)]Man(b1-4)GlcNAc(b1-4)GlcNAc
Procedure, shortened: as §1

[5] = molecular target: Neu5Ac(a2-6)Gal(b1-4)GlcNAc(b1-2)Man(a1-3)[GlcNAc(b1-2)Man(b1-4)GlcNAc(b1-2)Man(a1-6)]Man(b1-4)GlcNAc(b1-4)GlcNAc
Procedure, shortened: as §1

[6] = molecular target: Neu5Ac(a2-6)Gal(b1-4)GlcNAc(b1-2)Man(a1-3)[Man(a1-6)]Man(b1-4)GlcNAc(b1-4)GlcNAc
Procedure, shortened: as §1

[7] = molecular target: Neu5Ac(a2-6)Gal(b1-4)GlcNAc(b1-2)Man(a1-3)[Neu5Ac(a2-6)Gal(b1-4)GlcNAc(b1-2)Man(a1-6)]Man(b1-4)GlcNAc(b1-4)GlcNAc
Procedure, shortened: as §1

[8] = molecular target: Neu5Ac(a2-6)Gal(b1-4)GlcNAc(b1-2)Man(a1-6)Man(b1-4)GlcNAc(b1-4)GlcNAc
Procedure, shortened: as §1

[9] = molecular target: Neu5Ac(a2-6)Gal(b1-4)GlcNAc(b1-2)Man(a1-6)[Gal(b1-4)GlcNAc(b1-2)Man(a1-3)]Man(b1-4)GlcNAc(b1-4)GlcNAc
Procedure, shortened: as §1

[10] = molecular target: Neu5Ac(a2-6)Gal(b1-4)GlcNAc(b1-2)Man(a1-6)[GlcNAc(b1-2)Man(a1-3)]Man(b1-4)GlcNAc(b1-4)GlcNAc
Procedure, shortened: as §1

[11] = molecular target: Neu5Ac(a2-6)Gal(b1-4)GlcNAc(b1-2)Man(a1-6)[Man(a1-3)]Man(b1-4)GlcNAc(b1-4)GlcNAc
Procedure, shortened: as §1

[12] = molecular target: Neu5Ac(a2-6)Gal(b1-4)GlcNAc(b1-3)Gal(b1-3)GlcNAc
Procedure, shortened: as §1

[13] = molecular target: Neu5Ac(a2-6)Gal(b1-4)GlcNAc(b1-3)Gal(b1-4)GlcNAc
Procedure, shortened: as §1

[14] = molecular target: Neu5Ac(a2-6)Gal(b1-4)GlcNAc(b1-3)Gal(b1-4)GlcNAc(b1-3)Gal(b1-4)GlcNAc
Procedure, shortened: as §1

[15] = molecular target: Neu5Ac(a2-6)Gal(b1-4)GlcNAc(b1-3)Gal(b1-4)[Fuc(a1-3)]GlcNAc(b1-3)Gal(b1-4)[Fuc(a1-3)]GlcNAc
Procedure, shortened: as §1

[16] = molecular target: Neu5Ac(a2-6)Gal(b1-4)GlcNAc(b1-3)GalNAc
Procedure, shortened: as §1

[17] = molecular target: Neu5Ac(a2-6)Gal(b1-4)GlcNAc6S
Procedure, shortened: as §1

Neu5Ac(a2-6)GalNAc = molecular target: Neu5Ac(a2-6)GalNAc
Procedure, shortened: as §1

[18] = molecular target: Neu5Ac(a2-6)GalNAc(b1-4)GlcNAc
Procedure, shortened: as §1

[19] = molecular target: Neu5Ac(a2-6)GlcNAc(b1-4)GlcNAc
Procedure, shortened: as §1

[20] = molecular target: Neu5Ac(a2-6)GlcNAc(b1-4)GlcNAc(b1-4)GlcNAc
Procedure, shortened: as §1

Neu5Ac(a2-8)Neu5Ac = molecular target: Neu5Ac(a2-8)Neu5Ac
Procedure, shortened: as §1

[21] = molecular target: Neu5Ac(a2-8)Neu5Ac(a2-3)Gal(b1-4)Glc
Procedure, shortened: as §1

[22] = molecular target: Neu5Ac(a2-8)Neu5Ac(a2-3)[GalNAc(b1-4)]Gal(b1-4)Glc
Procedure, shortened: as §1

[23] = molecular target: Neu5Ac(a2-8)Neu5Ac(a2-8)Neu5Ac
Procedure, shortened: as §1

[24] = molecular target: Neu5Ac(a2-8)Neu5Ac(a2-8)Neu5Ac(a2-3)Gal(b1-4)Glc
Procedure, shortened: as §1

[25] = molecular target: Neu5Ac(a2-8)Neu5Ac(a2-8)Neu5Ac(a2-3)[GalNAc(b1-4)]Gal(b1-4)Glc
Procedure, shortened: as §1

[26] = molecular target: Neu5Ac(a2-8)Neu5Ac(a2-8)Neu5Ac(a2-8)Neu5Ac(a2-3)[GalNAc(b1-4)]Gal(b1-4)Glc
Procedure, shortened: as §1

[27] = molecular target: Neu5Ac(b2-6)Gal(b1-4)GlcNAc
Procedure, shortened: as §1

Neu5Ac(b2-6)GalNAc = molecular target: Neu5Ac(b2-6)GalNAc
Procedure, shortened: as §1

[28] = molecular target: Neu5Ac9Ac(a2-3)Gal(b1-3)GlcNAc
Procedure, shortened: as §1

[29] = molecular target: Neu5Ac9Ac(a2-3)Gal(b1-4)GlcNAc
Procedure, shortened: as §1

[30] = molecular target: Neu5Ac9Ac(a2-6)Gal(b1-4)GlcNAc
Procedure, shortened: as §1

[31] = molecular target: Neu5Gc(a2-3)Gal(b1-3)GlcNAc
Procedure, shortened: as §1

[32] = molecular target: Neu5Gc(a2-3)Gal(b1-3)[Fuc(a1-4)]GlcNAc
Procedure, shortened: as §1

Neu5Gc(a2-3)Gal(b1-4)Glc = molecular target: Neu5Gc(a2-3)Gal(b1-4)Glc
Procedure, shortened: as §1

[33] = molecular target: Neu5Gc(a2-3)Gal(b1-4)GlcNAc
Procedure, shortened: as §1

[34] = molecular target: Neu5Gc(a2-3)Gal(b1-4)[Fuc(a1-3)]GlcNAc
Procedure, shortened: as §1

[35] = molecular target: Neu5Gc(a2-6)Gal(b1-4)GlcNAc
Procedure, shortened: as §1

Neu5Gc(a2-6)GalNAc = molecular target: Neu5Gc(a2-6)GalNAc
Procedure, shortened: as §1

[36] = molecular target: Neu5Gc(b2-6)Gal(b1-4)GlcNAc
Procedure, shortened: as §1

B1: Tachylectin-2 (Tachypleus tridentatus), TAL2_TACTR (protein)
chain: VGGESMLRGVYQDKFYQGTYPQNKNDNWLARATLIGKGGWSNFKFLFLSPGGELYGVLNDKIYKGTPPTHDNDNWMGRAKKIGNGGWNQFQFLFFDPNGYLYAVSKDKLYKASPPQSDTDNWIARATEIGSGGWSGFKFLFFHPNGYLYAVHGQQFYKALPPVSNQDNWLARATKIGQGGWDTFKFLFFSSVGTLFGVQGGKFYEDYPPSYAHDNWLARAKLIGNGGWDDFRFLFF
**Q.** What does the source list for B1?
**A.** glycan array binding signal (z-score) (Neu5Ac(a2-6)Gal(b1-4)Glc): -0.278; glycan array binding signal (z-score) [1]: -0.176; glycan array binding signal (z-score) [2]: -0.293; glycan array binding signal (z-score) [3]: -0.358; glycan array binding signal (z-score) [4]: -0.363; glycan array binding signal (z-score) [5]: -0.339; glycan array binding signal (z-score) [6]: -0.295; glycan array binding signal (z-score) [7]: -0.245; glycan array binding signal (z-score) [8]: -0.295; glycan array binding signal (z-score) [9]: -0.344; glycan array binding signal (z-score) [10]: -0.342; glycan array binding signal (z-score) [11]: -0.294; glycan array binding signal (z-score) [12]: -0.297; glycan array binding signal (z-score) [13]: -0.249; glycan array binding signal (z-score) [14]: -0.294; glycan array binding signal (z-score) [15]: -0.327; glycan array binding signal (z-score) [16]: -0.296; glycan array binding signal (z-score) [17]: -0.143; glycan array binding signal (z-score) (Neu5Ac(a2-6)GalNAc): 3.68; glycan array binding signal (z-score) [18]: -0.011; glycan array binding signal (z-score) [19]: -0.293; glycan array binding signal (z-score) [20]: -0.294; glycan array binding signal (z-score) (Neu5Ac(a2-8)Neu5Ac): -0.05; glycan array binding signal (z-score) [21]: -0.15; glycan array binding signal (z-score) [22]: -0.349; glycan array binding signal (z-score) [23]: -0.333; glycan array binding signal (z-score) [24]: -0.333; glycan array binding signal (z-score) [25]: -0.309; glycan array binding signal (z-score) [26]: -0.334; glycan array binding signal (z-score) [27]: -0.155; glycan array binding signal (z-score) (Neu5Ac(b2-6)GalNAc): 0.566; glycan array binding signal (z-score) [28]: -0.296; glycan array binding signal (z-score) [29]: -0.293; glycan array binding signal (z-score) [30]: -0.074; glycan array binding signal (z-score) [31]: -0.291; glycan array binding signal (z-score) [32]: -0.316; glycan array binding signal (z-score) (Neu5Gc(a2-3)Gal(b1-4)Glc): -0.35; glycan array binding signal (z-score) [33]: -0.296; glycan array binding signal (z-score) [34]: -0.122; glycan array binding signal (z-score) [35]: -0.202; glycan array binding signal (z-score) (Neu5Gc(a2-6)GalNAc): 1.62; glycan array binding signal (z-score) [36]: -0.055
